{"source": "PubChem BioAssay AID1768", "about": "(National Center for Advancing Translational Sciences (NCATS), 2009)", "note": "Several values for one entry are separate records, joined by “and”; a condition that tells them apart may be missing. Identical values can stand only once. Among all 270,000 compounds or so, about 620 (0.23%) were called active. Inconclusive results, whose numbers are uncertain, are shown with a selection of clear calls. The call rests on the fitted dose curve; in most records, active means well fitted inhibition curve with a large enough effect in the polarisation, with a control signal flat (not every such curve was filed as active); inconclusive means small, poorly fitted or top-dose-only effect, or effect the other way, or a change in a side signal; inactive means no such curve, though single readings can be large or run the other way; the % refers to the polarisation. Where the call is inconclusive, the potency comes from a doubtful curve fit. A note “side channel” means that the fit belongs to a control or component signal, not to the main read-out. Potency means the concentration at half of the fitted maximal effect; tags describe the fitted curve by direction and shape or compound fluorescence and quenching.", "data": [{"target": "Menin (Homo sapiens) (UniProt O00255)", "sequence (O00255 whole entry, looked up)": "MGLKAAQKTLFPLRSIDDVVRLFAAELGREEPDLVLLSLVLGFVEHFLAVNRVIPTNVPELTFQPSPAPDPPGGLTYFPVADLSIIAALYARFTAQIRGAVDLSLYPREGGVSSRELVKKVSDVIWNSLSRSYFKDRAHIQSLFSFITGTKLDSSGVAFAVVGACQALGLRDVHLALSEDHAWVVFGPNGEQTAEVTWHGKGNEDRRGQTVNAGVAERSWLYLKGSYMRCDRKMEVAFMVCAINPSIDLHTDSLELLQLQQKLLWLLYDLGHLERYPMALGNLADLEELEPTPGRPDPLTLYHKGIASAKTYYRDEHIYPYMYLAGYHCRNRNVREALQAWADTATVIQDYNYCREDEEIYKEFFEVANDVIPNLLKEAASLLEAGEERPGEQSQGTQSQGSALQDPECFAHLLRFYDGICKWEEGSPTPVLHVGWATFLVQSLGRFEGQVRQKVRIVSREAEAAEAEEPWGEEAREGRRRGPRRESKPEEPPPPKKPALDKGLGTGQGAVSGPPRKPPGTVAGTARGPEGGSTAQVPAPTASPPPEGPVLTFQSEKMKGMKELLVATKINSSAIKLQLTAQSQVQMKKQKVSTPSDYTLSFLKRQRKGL", "test": "qHTS Assay for Inhibitors Targeting the Menin-MLL Interaction in MLL Related Leukemias: Competition With Texas Red Labeled MLL-derived Mutant Peptide; on FP activity change, negative = inhibition: % of control where 0% means no effect", "conditions": "fluorescence polarization; FP activity change, negative = inhibition: at 61.6 µM (top of the series)", "values": [{"smiles": "CCCCC(O)(c1ccc(OC)cc1)C(CN1CCOCC1)c1ccccc1", "note": "(stereo not given)", "Potency": "inconclusive: 7.94 µM [fluorescent, side channel, partial curve]"}, {"smiles": "COc1cc(C(=O)N2CCN(Cc3ccccc3C(F)(F)F)CC2)cc(OC)c1OC", "FP activity change, negative = inhibition": "inactive: -13.8%"}, {"smiles": "CC(=O)Cc1nsc(NC(=O)c2ccc(COc3ccccc3)o2)n1", "Potency": "inconclusive: 39.8 µM [quencher, side channel, single point]"}, {"smiles": "CC(C)(C)Nc1c([N+](=O)[O-])c(=O)sc2ccccc12", "Potency": "inconclusive: 35.5 µM [quencher, side channel, single point]"}, {"smiles": "COc1ccc2[nH]c3c(=O)n(CCCCC(=O)NCCN4CCCC4)c(=S)[nH]c3c2c1", "FP activity change, negative = inhibition": "inactive: 5.67%"}, {"smiles": "COc1ccc(CN2CCCC(C(=O)c3ccc(SC)cc3)C2)cc1Cn1cccn1", "note": "(stereo not given)", "Potency": "inconclusive: 7.08 µM [fluorescent, side channel, full curve, poor fit]"}, {"smiles": "CCC(=O)Nc1cccc(C2=NN(c3ccccc3)C(c3ccc(OC)cc3)C2)c1", "note": "(stereo not given)", "Potency": "inconclusive: 8.91 µM [quencher, side channel, partial curve]"}, {"smiles": "COc1ccc(OC)c(NC(=O)c2nnn(CC(=O)Nc3ccc4c(c3)OCO4)c2N)c1", "Potency": "inconclusive: 10 µM [quencher, side channel, partial curve]"}, {"smiles": "CC1=N/C(=C\\c2ccc([N+](=O)[O-])cc2)C(=O)N1c1ccc(Br)c(C)c1", "Potency": "inconclusive: 28.2 µM [quencher, side channel, partial curve]"}, {"smiles": "COc1ccc(Br)cc1/C=N/NC(=O)c1ccc2nc[nH]c2c1", "Potency": "inconclusive: 39.8 µM [inhibitor, single point]"}, {"smiles": "CCn1c(CSc2nnc3ccccn23)nc2cc(C(=O)O)ccc21", "Potency": "inconclusive: 22.4 µM [fluorescent, side channel, partial curve]"}, {"smiles": "O=S(=O)(c1ccccc1)N1CCC2(CCN(Cc3ccccc3)CC2)CC1", "FP activity change, negative = inhibition": "inactive: -6.63%"}, {"smiles": "CCC(=O)N1C2=C(c3ccccc3[C@@H]1CC(=O)Nc1ccc3ccccc3c1)[C@@H]1C(=O)N(c3ccccc3)C(=O)[C@@H]1[C@H](C)C2", "Potency": "inconclusive: 4.47 µM [inhibitor, single point]"}, {"smiles": "CCOC(=O)c1cnc2ccc(C)cc2c1OCc1cc(F)cc(F)c1", "Potency": "inconclusive: 22.4 µM [fluorescent, side channel, partial curve]"}, {"smiles": "O=C(Nc1ncc(S(=O)(=O)c2ccc([N+](=O)[O-])cc2)s1)c1cccc2ccccc12", "Potency": "inconclusive: 12.6 µM [quencher, side channel, partial curve]"}, {"smiles": "Cc1oc(-c2ccc(F)cc2)cc1-c1nn2c(-c3ccoc3C)nnc2s1", "Potency": "inconclusive: 28.2 µM [quencher, side channel, single point]"}, {"smiles": "O=C(CSc1nnc(SCc2cccc3ccccc23)s1)Nc1ccc(C(=O)O)cc1", "Potency": "inconclusive: 31.6 µM [quencher, side channel, single point]"}, {"smiles": "Cc1ccc(F)cc1NC(=O)c1ccc(NS(=O)(=O)c2ccc(Br)s2)cc1", "Potency": "inconclusive: 22.4 µM [quencher, side channel, single point]"}, {"smiles": "O=C(CN1C(=O)S/C(=C\\C=C\\c2ccccc2)C1=O)Nc1ccc(O)cc1", "Potency": "inconclusive: 28.2 µM [inhibitor, partial curve]"}, {"smiles": "CNC(=O)c1cc(-c2ccc(Cl)cc2)n(-c2ccccc2)n1", "Potency": "inconclusive: 8.91 µM [inhibitor, full curve, poor fit]"}, {"smiles": "COCCNC(=O)Cn1cnc2ccc(S(=O)(=O)N3CCC(C)CC3)cc2c1=O", "Potency": "inconclusive: 31.6 µM [inhibitor, partial curve]"}, {"smiles": "COc1cc2nc(Nc3ccc(C)c(Cl)c3)nc(N)c2cc1OC", "Potency": "inconclusive: 10 µM [quencher, side channel, partial curve]"}, {"smiles": "Cc1ccccc1OCc1n(CC(=O)OC2CC(C)CCC2C(C)C)c2ccccc2[n+]1C", "note": "(stereo not given)", "Potency": "inconclusive: 3.98 µM [fluorescent, side channel, full curve] and inconclusive: 7.08 µM [fluorescent, side channel, partial curve]"}, {"smiles": "CNC(=S)Nc1cc(S(=O)(=O)Nc2cc(Cl)ccc2Cl)ccc1N1CCCC1", "Potency": "inconclusive: 22.4 µM [quencher, side channel, single point]"}, {"smiles": "CC(C)(C)c1nnc2cccc(Cl)n12", "Potency": "inconclusive: 28.2 µM [inhibitor, single point]"}, {"smiles": "Cc1cc(NC(=O)CSc2nc(N)c(NC(=O)c3ccccc3)c(=O)[nH]2)no1", "FP activity change, negative = inhibition": "inactive: -25.4%"}, {"smiles": "O=C(Nc1ccc2ccccc2c1)c1ccc(Cl)cc1Cl", "Potency": "inconclusive: 39.8 µM [inhibitor, single point]"}, {"smiles": "Cc1nc(NC(=O)c2ccco2)sc1C(=O)Nc1ccc(Br)cc1", "Potency": "inconclusive: 11.2 µM [quencher, side channel, partial curve]"}, {"smiles": "C/C(=N\\NC(=O)c1nnn(-c2nonc2N)c1CSc1ccc(Cl)cc1)c1cccnc1", "Potency": "inconclusive: 28.2 µM [quencher, side channel, single point]"}, {"smiles": "COc1cccc(NS(=O)(=O)c2ccc3c(c2)CCN3C(C)=O)c1", "FP activity change, negative = inhibition": "inactive: 18%"}, {"smiles": "O=C(N1CCCCC1)C12CC3CC(C1)CC(C(=O)N1CCCCC1)(C3)C2", "Potency": "inconclusive: 0.631 µM [inhibitor, full curve, poor fit]"}, {"smiles": "COc1ccc2c(CC(=O)Nc3cccc(S(=O)(=O)N4CCOCC4)c3)coc2c1", "Potency": "inconclusive: 31.6 µM [quencher, side channel, partial curve]"}, {"smiles": "Cc1ccccc1NC(=O)CN1C(=O)S/C(=C\\c2cccn2-c2cccc(C(=O)O)c2)C1=O", "FP activity change, negative = inhibition": "inactive: 14.4%"}, {"smiles": "CCOC(=O)CSc1nc2sc3c(c2c(=O)n1-c1ccc(OC)cc1)CCN(C)C3", "Potency": "inconclusive: 25.1 µM [fluorescent, side channel, partial curve]"}, {"smiles": "COC(c1ccc(Cl)cc1)(c1ccc(Cl)cc1)C(Oc1nccc(C)n1)C(=O)O", "note": "(stereo not given)", "Potency": "inconclusive: 44.7 µM [quencher, side channel, partial curve, poor fit]"}, {"smiles": "Cn1c(N)c(C(=O)COC(=O)c2cc(-c3ccco3)nc3ccccc23)c(=O)n(Cc2ccccc2)c1=O", "Potency": "inconclusive: 10 µM [quencher, side channel, partial curve] and inconclusive: 3.98 µM [quencher, side channel, full curve]"}, {"smiles": "Cc1nc(N)sc1-c1csc(Nc2ccccn2)n1", "Potency": "inconclusive: 20 µM [quencher, side channel, single point]"}, {"smiles": "CC(=O)c1cccc(NC(=O)Nc2cnn(Cc3ccc(Cl)cc3Cl)c2)c1", "Potency": "inconclusive: 22.4 µM [quencher, side channel, partial curve]"}, {"smiles": "CCCC(C)C(=O)Nc1ccc2c(c1)OCCO2", "note": "(stereo not given)", "FP activity change, negative = inhibition": "inactive: -27%"}, {"smiles": "CCN(CC)S(=O)(=O)c1cccc(-c2n[nH]c(=S)n2/N=C/c2ccc(OC(F)F)cc2)c1", "Potency": "inconclusive: 25.1 µM [quencher, side channel, single point]"}, {"smiles": "O=C1[C@H]2[C@@H](c3ccc(F)cc3)N3C(=O)N(c4cccc(Br)c4)C(=O)[C@@]3(Cc3ccc(Cl)cc3)[C@H]2C(=O)N1C1CCCCC1", "Potency": "inconclusive: 22.4 µM [fluorescent, side channel, single point]"}, {"smiles": "N#Cc1c(N)nc(SCc2ccccc2)c(C#N)c1-c1ccco1", "Potency": "inconclusive: 14.1 µM [quencher, side channel, partial curve]"}, {"smiles": "COc1cc(OC)cc(C(=O)Nc2ccc(-c3nc4ccccc4o3)cc2)c1", "Potency": "inconclusive: 12.6 µM [quencher, side channel, partial curve]"}, {"smiles": "CCCCCCCCCCCCCCCC(=O)OC(CC(=O)O)C[N+](C)(C)C", "note": "(stereo not given)", "Potency": "inconclusive: 25.1 µM [fluorescent, side channel, partial curve]"}, {"smiles": "COc1ccc(NC(=O)CCCCCn2nnc3ccccc3c2=O)cc1OC", "Potency": "inconclusive: 31.6 µM [inhibitor, single point]"}, {"smiles": "O=C1NN(c2ccccc2)C(=O)/C1=C/c1ccc(-c2cccc(C(=O)O)c2)o1", "Potency": "inconclusive: 39.8 µM [quencher, side channel, single point]"}, {"smiles": "CCN1/C(=C2\\C(=O)N(c3ccccc3)N=C2C)C=Cc2cc(C)ccc21", "FP activity change, negative = inhibition": "inactive: -4.85%"}, {"smiles": "O=C(CCS(=O)(=O)c1ccccc1)Nc1cccc(-c2nc3ccccc3s2)c1", "Potency": "inconclusive: 22.4 µM [quencher, side channel, single point]"}, {"smiles": "CCOc1ccc(-c2nnc3sc(COc4ccccc4)nn23)cc1", "Potency": "inconclusive: 31.6 µM [fluorescent, side channel, single point]"}, {"smiles": "CC1(C)C/C(=N\\NC(=S)Nc2ccccc2F)c2cc(O)ccc2O1", "Potency": "inconclusive: 28.2 µM [quencher, side channel, partial curve]"}, {"smiles": "CC(O)c1nc2ccccc2n1C(C)c1ccccc1", "note": "(stereo not given)", "Potency": "inconclusive: 6.31 µM [inhibitor, partial curve]"}, {"smiles": "COc1ccc(CNc2ncc(-c3cccc([N+](=O)[O-])c3)n2C)c(OC)c1OC", "Potency": "inconclusive: 8.91 µM [inhibitor, single point]"}, {"smiles": "CCCC[C@@H]1CCCO[C@@](C(=O)NCCOC)(C(F)(F)F)C1", "FP activity change, negative = inhibition": "inactive: 2.27%"}, {"smiles": "Cc1nn(C)c(C(=O)NNC(=S)Nc2ccc(Cl)cc2)c1[N+](=O)[O-]", "Potency": "inconclusive: 17.8 µM [quencher, side channel, partial curve]"}, {"smiles": "COc1cc(NC(=O)c2cccs2)c(OC)cc1NC(=O)CCC(=O)Nc1cccc2ncccc12", "FP activity change, negative = inhibition": "inactive: 5.1%"}]}]}
